Measurements: the supplement of paper PMC4967469
IC50 is the fitted dose that halves viability relative to control wells, and lower means more sensitive; fits outside the tested doses are given as limits. AUC, from the same fit, is the share of area under the viability curve across the 256-fold dose range: 1 means no effect, lower means more sensitive. For part of these data: Where the top dose is marked as inferred, it was calculated from the reported fits. For part of these data: An entry number marks a drug with two screens in the source, which often give different values.

Columns and labels:
Experiment in all cases: Viability of human cancer cell lines after 72 h of drug (GDSC screen)
ZM-447439 = compound: COc1cc2c(Nc3ccc(NC(=O)c4ccccc4)cc3)ncnc2cc1OCCCN1CCOCC1 [ZM-447439]; details: top dose inferred
Experimental: (§1)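 Human cancer cell lines in 384-well plates, medium with 10% serum, drug for 72 h over a 256-fold dose range (nine 2-fold or five 4-fold steps up to the top dose). Adherent lines were fixed and stained with the nucleic acid dye Syto60, suspension lines read with resazurin; signal relative to control wells, capped at 0 and 100%. One two-parameter sigmoid per drug and line, fitted in a mixed model over all curves with the slope shared within a line.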

PD-0332991 = compound: CC(=O)c1c(C)c2cnc(Nc3ccc(N4CCNCC4)cn3)nc2n(C2CCCC2)c1=O [PD-0332991]
Experimental: as §1

AZD6244 = compound: Cn1cnc2c(F)c(Nc3ccc(Br)cc3Cl)c(C(=O)NOCCO)cc21 [AZD6244]; details: screen: GDSC drug entry 1062
Experimental: as §1

Cell Line	AUC (ZM-447439)	IC50 (ZM-447439)	AUC (PD-0332991)	IC50 (PD-0332991)	AUC (AZD6244)	IC50 (AZD6244)
FU-OV-1 (ovary, adherent, top dose 4 µM)	0.961	> 4 µM	0.974	> 4 µM	0.892	> 4 µM
Farage (B-cell lymphoma, suspension, top dose 4 µM)	0.941	> 4 µM	0.933	> 4 µM	0.99	> 4 µM
G-292 Clone A141B1 (osteosarcoma, adherent, top dose 4 µM)	0.951	> 4 µM	0.867	> 4 µM	0.967	> 4 µM
G-361 (melanoma, adherent, top dose 4 µM)	0.986	> 4 µM	0.93	> 4 µM	0.988	> 4 µM
G-401 (kidney, adherent, top dose 4 µM)	0.934	> 4 µM	0.748	1.39 µM	0.917	> 4 µM
GA-10 (Burkitt lymphoma, suspension, top dose 4 µM)	0.924	> 4 µM	0.801	1.61 µM	0.99	> 4 µM
GAK (melanoma, adherent, top dose 4 µM)	0.99	> 4 µM	0.969	> 4 µM	0.814	2.05 µM
GAMG (glioma, adherent, top dose 4 µM)	0.825	2.56 µM	0.773	1.63 µM	0.904	> 4 µM
GB-1 (glioma, adherent, top dose 4 µM)	0.909	> 4 µM	0.794	2.23 µM	0.907	> 4 µM
GCIY (stomach, adherent, top dose 4 µM)	0.98	> 4 µM	0.984	> 4 µM	0.821	2.71 µM
GDM-1 (acute myeloid leukaemia, suspension, top dose 4 µM)	0.985	> 4 µM	0.987	> 4 µM	0.987	> 4 µM
GI-1 (glioma, adherent, top dose 4 µM)	0.846	2.74 µM	0.984	> 4 µM	0.945	> 4 µM
GI-ME-N (neuroblastoma, adherent, top dose 4 µM)	0.921	> 4 µM	0.818	3.4 µM	0.943	> 4 µM
GMS-10 (glioma, adherent, top dose 4 µM)	0.876	3.92 µM	0.859	3.28 µM	0.907	> 4 µM
GOTO (neuroblastoma, adherent, top dose 4 µM)	0.866	> 4 µM	0.862	> 4 µM	0.96	> 4 µM
GR-ST (lymphoblastic leukaemia, suspension, top dose 4 µM)	0.949	> 4 µM	0.857	> 4 µM	0.898	> 4 µM

Cell Line	AUC (ZM-447439)	IC50 (ZM-447439)	AUC (PD-0332991)	IC50 (PD-0332991)	AUC (AZD6244)	IC50 (AZD6244)
GRANTA-519 (B-cell lymphoma, suspension, top dose 4 µM)	0.951	> 4 µM	0.986	> 4 µM	0.991	> 4 µM
GT3TKB (stomach, adherent, top dose 2 µM)	0.928	> 2 µM	0.865	1.42 µM	0.932	> 2 µM
H4 (glioma, adherent, top dose 4 µM)	0.772	1.53 µM	0.759	1.39 µM	0.926	> 4 µM
H9 (lymphoid neoplasm, suspension, top dose 4 µM)	0.945	> 4 µM	0.992	> 4 µM	0.992	> 4 µM
H290 (mesothelioma, adherent, top dose 4 µM)	0.909	> 4 µM	0.602	0.465 µM	0.989	> 4 µM
H2369 (mesothelioma, adherent, top dose 4 µM)	0.936	> 4 µM	0.667	0.743 µM	0.964	> 4 µM
H2373 (mesothelioma, adherent, top dose 4 µM)	0.97	> 4 µM	0.832	3.5 µM	0.891	> 4 µM
H2461 (mesothelioma, adherent, top dose 4 µM)	0.982	> 4 µM	0.849	> 4 µM	0.98	> 4 µM
H2591 (mesothelioma, adherent, top dose 2 µM)	0.9	> 2 µM	0.611	0.278 µM	0.763	0.931 µM
H2595 (mesothelioma, adherent, top dose 4 µM)	0.901	> 4 µM	0.904	> 4 µM	0.891	> 4 µM
H2731 (mesothelioma, adherent, top dose 4 µM)	0.968	> 4 µM	0.851	3.77 µM	0.974	> 4 µM
H2795 (mesothelioma, adherent, top dose 4 µM)	0.948	> 4 µM	0.844	2.79 µM	0.829	2.43 µM
H2869 (mesothelioma, adherent, top dose 4 µM)	0.983	> 4 µM	0.946	> 4 µM	0.981	> 4 µM
H3255 (lung adenocarcinoma, adherent, top dose 4 µM)	0.908	> 4 µM	0.904	> 4 µM	0.933	> 4 µM
H-EMC-SS (chondrosarcoma, adherent, top dose 4 µM)	0.967	> 4 µM	0.764	1.87 µM	0.54	0.333 µM
HAL-01 (lymphoblastic leukaemia, suspension, top dose 4 µM)	0.94	> 4 µM	0.7	0.842 µM	0.969	> 4 µM
